This note sets out measurements from the supplement of paper PMC10369915.

Some of the results follow. No stated cut-off is given here; in the data, active = 3.2 or more and inactive = the rest. The signal is at background level for most entries.
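Further: displayed peptides selected on beads carrying the immobilized SH2 domain, with library peptides lacking any tyrosine serving as negative controls.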

In the first assay the target is SHP2 C-SH2 domain E139D. Put plainly: enrichment score (SH2-bound / input frequency) (ratio); bacterial display of known human phosphotyrosine sites (pTyr-Var adds point mutants) read by sequencing; higher = stronger binding; tyrosines were phosphorylated by kinases first. The conditions noted are these: peptide library: pTyr-Var.
Consider RALRHYFKLNI [ETV6_Y401_YF], for which the enrichment score was active: 3.32.
On to GKFHMYVAVWT [F13A1_Y161_R159H], for which the enrichment score was inactive: 0.402.
Regarding PASLSYLSFEG [EXOSC3_Y143], the enrichment score is inactive: 0.93.
On to ERLWDYGMSSS [F8_Y1728], for which the enrichment score was inactive: 0.937.
For RIGRKYKKVRF [F8_Y442], the enrichment score is inactive: 0.26.
QKKEEYKMALF [F8_Y1990_R1985Q_YF]: the enrichment score was inactive: 0.799.
Take LSSEMYVKSFT [F5_Y2149_YF]: the enrichment score is inactive: 0.971.
As to EFISENCGEII [EZH2_Y641_Y641N], the enrichment score is inactive: 0.724.
Still for that read-out and setting: in the case of EFISECCGEII [EZH2_Y641_Y641C] it was inactive: 0.518; in that of KRLWDYGMSSS [F8_Y1728_E1723K], inactive: 1.14.
Take MCVKSYTIHYS [F5_Y2153_Y2149C]: the enrichment score was inactive: 1.02.
On the same count and under the same terms, the result for RKKEEYKMAPY [F8_Y1990_L1994P] reads inactive: 0.681.
Still for that read-out and setting: in the case of RIVRKYKKVRF [F8_Y442_G439V] it was inactive: 0.199; in that of DTSKMYIPHTD [EXPH5_Y782], inactive: 0.815; in that of RALCHYYKLNI [ETV6_Y401_R399C], active: 3.25.
On the same count and under the same terms, in the case of CHRQLYHKCTH [F12_Y58_Y53C] it was active: 3.87.
With RKKEEYKMAPF [F8_Y1990_L1994P_YF], the enrichment score was inactive: 0.617.
MLEVPYVDHNS [F10_Y384_R387H]: the enrichment score is inactive: 0.883.

In the next assay the target is SHP2 C-SH2 domain wild-type. The assay is described as above. The conditions noted are these: peptide library: pTyr-Var.
As to RALRHYFKLNI [ETV6_Y401_YF], the enrichment score was inactive: 2.9.
The same measure, in the same setting: in the case of GKFHMYVAVWT [F13A1_Y161_R159H] it was inactive: 0.746; in that of PASLSYLSFEG [EXOSC3_Y143], inactive: 0.875.
The same measure, in the same setting: the result for ERLWDYGMSSS [F8_Y1728] reads inactive: 0.881; that for RIGRKYKKVRF [F8_Y442], inactive: 0.244; that for QKKEEYKMALF [F8_Y1990_R1985Q_YF], inactive: 0.6.
On the same count and under the same terms, the result for LSSEMYVKSFT [F5_Y2149_YF] reads inactive: 1.23; that for EFISENCGEII [EZH2_Y641_Y641N], inactive: 0.631.
Consider EFISECCGEII [EZH2_Y641_Y641C], for which the enrichment score was inactive: 0.673.
For KRLWDYGMSSS [F8_Y1728_E1723K], the enrichment score was inactive: 0.974.
Still for that read-out and setting: the result for MCVKSYTIHYS [F5_Y2153_Y2149C] reads inactive: 1.04; that for RKKEEYKMAPY [F8_Y1990_L1994P], inactive: 0.514; that for RIVRKYKKVRF [F8_Y442_G439V], inactive: 0.348.
The same measure, in the same setting: in the case of DTSKMYIPHTD [EXPH5_Y782] it was inactive: 0.682; in that of RALCHYYKLNI [ETV6_Y401_R399C], inactive: 2.95.
For the molecule CHRQLYHKCTH [F12_Y58_Y53C], the enrichment score is active: 3.36.
As to RKKEEYKMAPF [F8_Y1990_L1994P_YF], the enrichment score was inactive: 0.461.
On to MLEVPYVDHNS [F10_Y384_R387H], for which the enrichment score is inactive: 1.2.

In a further assay the target is SHP2 N-SH2 domain L43F. Described as above. The conditions noted are these: peptide library: pTyr-Var.
For the molecule RALRHYFKLNI [ETV6_Y401_YF], the enrichment score was inactive: 2.78.
Still for that read-out and setting: the result for GKFHMYVAVWT [F13A1_Y161_R159H] reads inactive: 0.565; that for PASLSYLSFEG [EXOSC3_Y143], inactive: 1.33; that for ERLWDYGMSSS [F8_Y1728], inactive: 0.938.
As to RIGRKYKKVRF [F8_Y442], the enrichment score was inactive: 0.378.
The same measure, in the same setting: the result for QKKEEYKMALF [F8_Y1990_R1985Q_YF] reads inactive: 0.686.
The same measure, in the same setting: the result for LSSEMYVKSFT [F5_Y2149_YF] reads inactive: 0.941; that for EFISENCGEII [EZH2_Y641_Y641N], inactive: 0.588.
EFISECCGEII [EZH2_Y641_Y641C]: the enrichment score was inactive: 0.719.
Regarding KRLWDYGMSSS [F8_Y1728_E1723K], the enrichment score is inactive: 0.911.
As for MCVKSYTIHYS [F5_Y2153_Y2149C], the enrichment score is inactive: 0.986.
On the same count and under the same terms, the result for RKKEEYKMAPY [F8_Y1990_L1994P] reads inactive: 0.699.
The same measure, in the same setting: in the case of RIVRKYKKVRF [F8_Y442_G439V] it was inactive: 0.237; in that of DTSKMYIPHTD [EXPH5_Y782], inactive: 0.622; in that of RALCHYYKLNI [ETV6_Y401_R399C], active: 3.31.
As to CHRQLYHKCTH [F12_Y58_Y53C], the enrichment score was active: 3.59.
Same read-out and setting: the result for RKKEEYKMAPF [F8_Y1990_L1994P_YF] reads inactive: 0.328; that for MLEVPYVDHNS [F10_Y384_R387H], inactive: 0.993.

The target of the next assay is SHP2 N-SH2 domain T42A. The description is as above. The conditions noted are these: peptide library: pTyr-Var.
On to RALRHYFKLNI [ETV6_Y401_YF], for which the enrichment score is active: 3.22.
The same measure, in the same setting: the result for GKFHMYVAVWT [F13A1_Y161_R159H] reads inactive: 0.456; that for PASLSYLSFEG [EXOSC3_Y143], inactive: 2.33; that for ERLWDYGMSSS [F8_Y1728], inactive: 0.82.
Same read-out and setting: the result for RIGRKYKKVRF [F8_Y442] reads inactive: 0.235.
Take QKKEEYKMALF [F8_Y1990_R1985Q_YF]: the enrichment score was inactive: 0.659.
As to LSSEMYVKSFT [F5_Y2149_YF], the enrichment score was inactive: 0.864.
As for EFISENCGEII [EZH2_Y641_Y641N], the enrichment score is inactive: 0.583.
Turning to EFISECCGEII [EZH2_Y641_Y641C], the enrichment score was inactive: 0.656.
KRLWDYGMSSS [F8_Y1728_E1723K]: the enrichment score was inactive: 0.986.
Still for that read-out and setting: in the case of MCVKSYTIHYS [F5_Y2153_Y2149C] it was inactive: 0.921; in that of RKKEEYKMAPY [F8_Y1990_L1994P], inactive: 0.558; in that of RIVRKYKKVRF [F8_Y442_G439V], inactive: 0.271.
Consider DTSKMYIPHTD [EXPH5_Y782], for which the enrichment score is inactive: 0.69.
On the same count and under the same terms, in the case of RALCHYYKLNI [ETV6_Y401_R399C] it was inactive: 2.48.
Regarding CHRQLYHKCTH [F12_Y58_Y53C], the enrichment score was active: 3.39.
On the same count and under the same terms, the result for RKKEEYKMAPF [F8_Y1990_L1994P_YF] reads inactive: 0.351.
The same measure, in the same setting: the result for MLEVPYVDHNS [F10_Y384_R387H] reads inactive: 0.882.

The next assay addresses SHP2 N-SH2 domain T52S. The assay is described as above. The conditions noted are these: peptide library: pTyr-Var.
On to RALRHYFKLNI [ETV6_Y401_YF], for which the enrichment score is inactive: 2.54.
With GKFHMYVAVWT [F13A1_Y161_R159H], the enrichment score is inactive: 0.552.
As to PASLSYLSFEG [EXOSC3_Y143], the enrichment score was inactive: 1.34.
As for ERLWDYGMSSS [F8_Y1728], the enrichment score is inactive: 0.834.
RIGRKYKKVRF [F8_Y442]: the enrichment score is inactive: 0.191.
QKKEEYKMALF [F8_Y1990_R1985Q_YF]: the enrichment score is inactive: 0.796.
Same read-out and setting: in the case of LSSEMYVKSFT [F5_Y2149_YF] it was inactive: 0.85; in that of EFISENCGEII [EZH2_Y641_Y641N], inactive: 0.686.
Same read-out and setting: in the case of EFISECCGEII [EZH2_Y641_Y641C] it was inactive: 0.712; in that of KRLWDYGMSSS [F8_Y1728_E1723K], inactive: 0.973; in that of MCVKSYTIHYS [F5_Y2153_Y2149C], inactive: 0.822.
Consider RKKEEYKMAPY [F8_Y1990_L1994P], for which the enrichment score is inactive: 0.551.
Same read-out and setting: the result for RIVRKYKKVRF [F8_Y442_G439V] reads inactive: 0.332; that for DTSKMYIPHTD [EXPH5_Y782], inactive: 0.586.
Still for that read-out and setting: the result for RALCHYYKLNI [ETV6_Y401_R399C] reads inactive: 2.81; that for CHRQLYHKCTH [F12_Y58_Y53C], active: 3.75; that for RKKEEYKMAPF [F8_Y1990_L1994P_YF], inactive: 0.496.
For the molecule MLEVPYVDHNS [F10_Y384_R387H], the enrichment score is inactive: 0.881.

In another assay the target is SHP2 N-SH2 domain wild-type. The description is as above. Particulars: peptide library: pTyr-Var.
As to RALRHYFKLNI [ETV6_Y401_YF], the enrichment score was inactive: 3.07.
The same measure, in the same setting: the result for GKFHMYVAVWT [F13A1_Y161_R159H] reads inactive: 0.892; that for PASLSYLSFEG [EXOSC3_Y143], inactive: 1.01.
Still for that read-out and setting: the result for ERLWDYGMSSS [F8_Y1728] reads inactive: 0.991.
For the molecule RIGRKYKKVRF [F8_Y442], the enrichment score is inactive: 0.135.
Same read-out and setting: in the case of QKKEEYKMALF [F8_Y1990_R1985Q_YF] it was inactive: 0.623; in that of LSSEMYVKSFT [F5_Y2149_YF], inactive: 1.14.
As to EFISENCGEII [EZH2_Y641_Y641N], the enrichment score was inactive: 0.88.
EFISECCGEII [EZH2_Y641_Y641C]: the enrichment score was inactive: 0.713.
KRLWDYGMSSS [F8_Y1728_E1723K]: the enrichment score is inactive: 1.03.
In the case of MCVKSYTIHYS [F5_Y2153_Y2149C], the enrichment score is inactive: 1.23.
On the same count and under the same terms, the result for RKKEEYKMAPY [F8_Y1990_L1994P] reads inactive: 0.481.
Consider RIVRKYKKVRF [F8_Y442_G439V], for which the enrichment score was inactive: 0.295.
Still for that read-out and setting: in the case of DTSKMYIPHTD [EXPH5_Y782] it was inactive: 0.723; in that of RALCHYYKLNI [ETV6_Y401_R399C], inactive: 2.85.
Same read-out and setting: the result for CHRQLYHKCTH [F12_Y58_Y53C] reads active: 3.46; that for RKKEEYKMAPF [F8_Y1990_L1994P_YF], inactive: 0.38.
The same measure, in the same setting: in the case of MLEVPYVDHNS [F10_Y384_R387H] it was inactive: 1.18.
